# Results published in article PMC12136788.
# This is one part of the list.
# T1: UNK ZnF1-3 (human, UniProt Q9C0B0 31-174)
# T1 sequence: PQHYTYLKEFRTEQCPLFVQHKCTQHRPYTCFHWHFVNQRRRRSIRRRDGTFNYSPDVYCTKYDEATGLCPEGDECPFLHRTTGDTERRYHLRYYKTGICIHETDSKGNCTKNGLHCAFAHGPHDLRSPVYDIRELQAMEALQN
# B1: 19412715_19413243_14704_CDS_ENSG00000127481_ENST00000375254|human|control|control (ssRNA)
# RNA: GGGAGUUCUACAGUCCGACGAUCGGCAUUCUGCAGGGCGGCACUCUCCCACUCUUCCCGGCCUCGAGCCAACCUGACGGCAGCCAGAUGGCAGUCGUAGUGCACAAUGUUGAAGUGGGACACGGUGCUGUAGCCCUGCUGUUUCAACAGAGGAUUGAGCAUCA
# B2: chr10:1038518:1038519:+_ENSG00000107937_ENST00000545048|hu_hu|hu_hu_hu_mus_False|58_58 (ssRNA)
# RNA: GGGAGUUCUACAGUCCGACGAUCCAGUCUGUCAUGGUAAUUCUGUUGAGUAAAUUUGACUUUUCUCAUAUAAAAAUGUCUAAUGCGAUGAAUUUGAUAAUGUUUAUGAAUAACCGUUGGAGUCUUUCGUUGAGUCUUGGAUAACAACAGAGGAUUGAGCAUCA
# B3: chr7:80921385:80921386:+_ENSMUSG00000078670_ENSMUST00000107456|mus_mus|FALSE|FALSE (ssRNA)
# RNA: GGGAGUUCUACAGUCCGACGAUCUAGGGCUGAAAGAACCAGUGUCAAGUCAGGCUCCUGAGCCAGGGUGGAUCUUCCCACCUACCGCCAUCACCACAACCCCAGUCAGAACUGGAGAACCUGACAGUGGUGGAGCUGGCCAAGCAACAGAGGAUUGAGCAUCA
# B4: chr4:136884974:136884975:-_ENSMUSG00000006699_ENSMUST00000030417|mus_hu|motif|central (ssRNA)
# RNA: GGGAGUUCUACAGUCCGACGAUCCACCCACUUUUCUUUCACGUUUUCAAAUGAAGAUGGAGAGACCACUGAAAAACAGACGGGAAAUACAUCUGUUUGUGGAUAACUCAGCGGUCGUAAUCUGUCAUAAUCCUCUUGCCCUGCCAACAGAGGAUUGAGCAUCA
# B5: chr3:100103413:100103414:-_ENSG00000154174_ENST00000284320|hu_mus|FALSE|FALSE (ssRNA)
# RNA: GGGAGUUCUACAGUCCGACGAUCAAGAAGUUUAAGAACUUUAUCAGCUAACAGCAUGCUCUGCUCAUUUUGAAACCCUUCUAAUAUACACACAGCAGUGACGUCUUCUAAACACUCCUUCUUAUUGUCUAGCUUCUCAUGGGCCAACAGAGGAUUGAGCAUCA
# B6: chr4:17845017:17845018:+_ENSG00000109805_ENST00000514176|hu_mus|hu_hu_hu_mus_False|18_98 (ssRNA)
# RNA: GGGAGUUCUACAGUCCGACGAUCGCUCUCUUAACUUGAUCUUCAUUUAAGGAACUCUGCAAGGUUAAGUUUACUUUUCUGUAGCGCAGCUGUUUUGGCUCGUCUGGGUAAUCUCAUUUCAUUUCUGGAUGGUGGUUCAUGAUCCAACAGAGGAUUGAGCAUCA
# B7: 39178702_39179248_2937_CDS_ENSMUSG00000037475_ENSMUST00000047037|mouse|control|control (ssRNA)
# RNA: GGGAGUUCUACAGUCCGACGAUCUGAAAAAAUGCAUCGAGGAAAUAUACACAGCUGUAAAAAUUUUGUGAUGGUCUCAUUUUUGGUAGACUUUGCUAAAAGCCAGUUGUCCUUUUCUAGUUUCAGUCUCUGAAGUACUCUUUGCAACAGAGGAUUGAGCAUCA
# B8: chr2:162251599:162251600:+_ENSG00000115233_ENST00000409682|hu_hu|FALSE|FALSE (ssRNA)
# RNA: GGGAGUUCUACAGUCCGACGAUCACAAUGUUCACUGUAGUCCUGAAGUGUCAAACCUUCCAUCCAACUCUUCUUAUGCAAAUUUAGCAACAUCUUCUGUUCCAGUUCAUUUUUCCGAUAGUUAAUAGUAAUGGAGUAAUAAUGCAACAGAGGAUUGAGCAUCA
# B9: chr7:56126341:56126342:+_ENSG00000146731_ENST00000540286|hu_mus|hu_hu_hu_mus_True|38_108 (ssRNA)
# RNA: GGGAGUUCUACAGUCCGACGAUCCAUAUUUCUCCUUUUGGCUCUGCGCAGAGCUACGAUCCCUUCUUUCGCAAGGGCAUCUAAGGAAAAGGGGUCAAUUCCCUUUUGAUUAAUAACGACAAAUCCUUUAUCUGAGUCACCACACAACAGAGGAUUGAGCAUCA
# B10: 98693666_98693786_2379_CDS_ENSMUSG00000048154_ENSMUST00000023741|mouse|control|control (ssRNA)
# RNA: GGGAGUUCUACAGUCCGACGAUCCAGCGGCAGCUCCUCAGGCUGGGGACAGAGUCGGGGCUCCUCAGGCUGAGGAGACAAGUAUGGUUCCUCGGGCUGAGGGCAGAGUCUCAGCUCCUCAGGCAGUGGCGACAGCGGUGACUCCAACAGAGGAUUGAGCAUCA
# B11: chr7:65705844:65705845:+_ENSG00000169902_ENST00000304842|hu_mus|hu_hu_hu_mus_False|28_28 (ssRNA)
# RNA: GGGAGUUCUACAGUCCGACGAUCAAACGGAUCUUUGUUACAUAAAUAAGGUGCCGGCUCCCCAUGUUUAACAAUGACCUCCAGAAGGAAGGCUUGCAUGGCAGAAUCCAGCACUUCAUCUGUGACACCCGCCUCAUCCAAGCGCAACAGAGGAUUGAGCAUCA
# B12: chr19:12856456:12856457:+_ENSG00000198356_ENST00000357332|hu_hu|FALSE|FALSE (ssRNA)
# RNA: GGGAGUUCUACAGUCCGACGAUCCACGAUGGUGGGGAAGUUGAGCAGCCUCAGGGUGUGGCCCGUGGGUGCCGUGUCAAAUACCACCACCGAGAAGUUCAUGCCCUUCACCAGCCUCAUGACCUCGGCAUAGCUCAUGGCCUCCAACAGAGGAUUGAGCAUCA
# B13: chr7:143002065:143002066:+_ENSG00000106144_ENST00000310447|hu_mus|FALSE|FALSE (ssRNA)
# RNA: GGGAGUUCUACAGUCCGACGAUCCAGAGUACUACAGUACUCAGACAUCUCCUUGCAUCGGUGGAAUUCUGUGCCAGGGGCAUAGCCUUCACGCUCCUUGAUAAGGGCAUUCACCUUAACAAGCAUGUCGGCCACGUGCAUGUCCAACAGAGGAUUGAGCAUCA
# B14: chr7:151048522:151048523:+_ENSG00000013374_ENST00000566856|hu_mus|hu_hu_hu_mus_True|68_108 (ssRNA)
# RNA: GGGAGUUCUACAGUCCGACGAUCCUGCUUCUUAUUUAUUACGAUCUUGAUGUAAUUUUCUUGAAAUCCAAAGGUUUCAGCUAUUUGACACCUCAGGUCUCUACCAGUGACAUGCAAGCGGGUCUCCAACAAGCUUUUCUUAUCCAACAGAGGAUUGAGCAUCA
# B15: chr5:151042278:151042279:-_ENSG00000113140_ENST00000231061|hu_hu|FALSE|FALSE (ssRNA)
# RNA: GGGAGUUCUACAGUCCGACGAUCAUGACAAUCAUCCAAAUGUGAGGAAAGAACAACCGAUUCACCAACUCCACUUUUUCUAUUUUACAACUUUCUACAUCUCACUCUUGAUUUUGGCCUUCCUGGCUGAAACAGCCUGGCAGUCAACAGAGGAUUGAGCAUCA
# B16: chr9:64576133:64576134:-_ENSMUSG00000004771_ENSMUST00000172298|mus_hu|motif|central (ssRNA)
# RNA: GGGAGUUCUACAGUCCGACGAUCUGUCCCAUAUCUGUGCCUUUAUUGUUUUUCCAUCAACCUGGAUGCUUCUUGUUGCAAACUCGGCUCCAAUGGUGCUCUUGCUUUCCAGAUUAAACUCAUUUCGAGUAAAUCGAGACAGGACAACAGAGGAUUGAGCAUCA
# B17: 155504106_155530241_1416_CDS_ENSG00000184863_ENST00000401878|human|control|control (ssRNA)
# RNA: GGGAGUUCUACAGUCCGACGAUCUGGAAAUUCUGGAGGGCCUGGGAAUCUCUGGGGUCCCACGGCAGGUCUCGGCUGGCUCGGAACUGGUAGCAAGGGCACUUGAACAGGCGUGACCACCGUCCCUUUGAAGUGCGGGUUGAUCAACAGAGGAUUGAGCAUCA
# B18: 4354425_4416706_570_5pUTR_ENSMUSG00000020647_ENSMUST00000085814|mouse|control|control (ssRNA)
# RNA: GGGAGUUCUACAGUCCGACGAUCGCUUCUGGGGGAGUAAUGCAGUGUGUCCAGAGAUGGCGCUCGUCGGUUUGCUCUCACCUCAUUUAAGGUCAAUUACACGGACAACUUUGAAUAAGUAGAAAGUCUGAAUGUUGGUGUCUUCAACAGAGGAUUGAGCAUCA
# B19: chr4:184628046:184628047:+_ENSG00000168538_ENST00000334690|hu_hu|motif|central (ssRNA)
# RNA: GGGAGUUCUACAGUCCGACGAUCGAGACCUGAGAACAUGAAGGCAUCACUGGGCUCCACAGAAAUUUCUACAUCUUGAACGGAGUCGGUCUUAUUCUGUAGGUGAUACUUGACAGGUAACGACUCUCUGACACGCCCAAAUGACAACAGAGGAUUGAGCAUCA
# B20: chr17:40142368:40142369:-_ENSG00000168259_ENST00000588814|hu_hu|motif|central (ssRNA)
# RNA: GGGAGUUCUACAGUCCGACGAUCAUUCGUAGAAUGUCACUAGCCACAGACUGUGCUUCUGGAUAACGACCCAGCAUUGCGGAACAUUCUGCCUUGAGGAUUUUGAAGCGAUGGCAGGCAGGGGCAAAUUCUAGGGCACGGUCCCAACAGAGGAUUGAGCAUCA
# B21: chr19:16212804:16212805:+_ENSG00000167460_ENST00000300933|hu_mus|hu_hu_hu_mus_False|28_78 (ssRNA)
# RNA: GGGAGUUCUACAGUCCGACGAUCAACAAUUCUGGAGUGAAGGAAAGAUGUAACAUGCAAUUAAUUAAAAGCUCAGUCAGAAGGCACAUGGGCAACAAUGAUCACCCCCCAAGCAUUGCUUGGAAUGCUUAAAGACAAUCUGUUCAACAGAGGAUUGAGCAUCA
# B22: chr1:25551555:25551556:-_ENSG00000117614_ENST00000236273|hu_hu|motif|central (ssRNA)
# RNA: GGGAGUUCUACAGUCCGACGAUCUAUGACCAUCCUGUCAAUUUCCUCUGUGGAAGGCACAUGUGUUCCAUGAAGAAGACGGUUGGAUGUUGGGAAAAACUCUUCUCCAUGUUUUUCUCUCAGUCUCUCAUAUGUUUCCAUGUCCAACAGAGGAUUGAGCAUCA
# Biological target: T1, UNK ZnF1-3
# Assay: nsRBNS (natural sequence RNA bind-n-seq); RBNS binding buffer (assumed for nsRBNS): 25 mM Tris pH 7.5, 150 mM KCl, 3 mM MgCl2, 0.01% Triton X-100, 500 ug/ml BSA, 20 U/ml SUPERase-In, 4 C; UNK is unkempt and MSI1 is Musashi-1; names of the RNAs are library labels; protein concentration not given here; high values mean tight binding
row,Binder,binding signal [enrichment R]
1,B1,0.268
2,B2,0.7
3,B3,0.603
4,B4,1.01
5,B5,0.919
6,B6,0.465
7,B7,0.951
8,B8,1.06
9,B9,0.881
10,B10,0.92
11,B11,0.278
12,B12,0.844
13,B13,0.434
14,B14,0.754
15,B15,1.12
16,B16,0.836
17,B17,0.927
18,B18,0.834
19,B19,1.27
20,B20,1.23
21,B21,1.51
22,B22,0.577
